Measurements published in PubChem BioAssay AID2675 (National Center for Advancing Translational Sciences (NCATS), 2010).
About 100 (0.036%) of roughly 280,000 compounds were called active. Inconclusive means that the source gave no clear call. Such entries were picked first, then a sample of the others. Calls come from the whole dose curve; as a rule, active = well fitted inhibition curve with a large enough effect in the signal ratio, with a control signal flat (not every such curve was filed as active); inconclusive = small, poorly fitted or top-dose-only effect, or effect the other way, or a change in a side signal; inactive = no such curve, though single readings can be large or run the other way; the % refers to the signal ratio. A potency beside an inconclusive call is a rough fit, not a confirmed value. “Side channel” marks fits to a control or component signal instead of the main read-out.

Each compound was assayed against Muscleblind-like protein 1 (Homo sapiens) (UniProt Q9NR56) (assay: qHTS Assay for Inhibitors of MBNL1-poly(CUG) RNA binding). Settings: TR-FRET MBNL1-His/biotin-(CUG)12 binding, 665/545 ratio; activity change, negative = inhibition: at 57.5 µM (top of the series).
Sequence of UniProt Q9NR56 (Q9NR56 whole entry, looked up): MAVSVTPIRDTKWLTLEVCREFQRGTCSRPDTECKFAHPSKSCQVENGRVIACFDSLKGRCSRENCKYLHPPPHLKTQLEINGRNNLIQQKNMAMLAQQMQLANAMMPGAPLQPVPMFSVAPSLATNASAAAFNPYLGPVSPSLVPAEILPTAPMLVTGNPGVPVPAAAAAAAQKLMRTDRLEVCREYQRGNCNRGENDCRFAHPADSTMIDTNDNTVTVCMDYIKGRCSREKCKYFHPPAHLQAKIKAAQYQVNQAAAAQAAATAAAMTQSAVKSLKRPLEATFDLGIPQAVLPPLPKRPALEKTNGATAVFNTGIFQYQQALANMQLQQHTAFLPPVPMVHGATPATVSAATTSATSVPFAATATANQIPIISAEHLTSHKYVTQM
Outline: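 TR-FRET between His-tagged MBNL1 and biotin-(CUG)12 RNA, detected with Tb anti-His antibody (0.055 ng/ul) and streptavidin-XL665 (5 nM), 60 min at room temperature. Compounds titrated 92 nM to 58 uM; 665/545 nm ratio normalized to buffer and complex controls.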
% is set by controls: 0 for no effect and ±100 for the full control effect; potency is the fitted concentration of half-maximal effect; tags give direction and shape of the fitted curve or compound fluorescence and quenching.

For `O=C(NC1CCCC1)C(c1ccncc1)N(C(=O)c1ccco1)c1ccc(F)c(Cl)c1` (centres undefined), which “activity change, negative = inhibition” value is on record?
Its value is inactive: 2.13%.

With `COc1ccc(CNC(=O)CN2C(=O)c3ccc([N+](=O)[O-])cc3C2=O)cc1` as the compound, how does the Potency read?
Its Potency is inconclusive: 12.6 µM [quencher, side channel, partial curve].

Which Potency does the source give for `NC(=O)CSCc1cccc(Br)c1` here?
The Potency was inconclusive: 2.82 µM [fluorescent, side channel, full curve].

For `COc1ccc2cc(/C=N/NC(=O)c3c(Cl)cnn3C)c(Cl)nc2c1`, which activity change, negative = inhibition is on record?
The activity change, negative = inhibition was inactive: 14.9% [at 11.5 µM].

With `CC1=CC(c2ccccc2)n2nc(NS(=O)(=O)c3ccc(C)cc3)nc2N1` (centres undefined) as the compound, how does the Potency read?
The Potency was inconclusive: 44.7 µM [quencher, side channel, single point].

Which Potency does the source give for `CN(C)/C=N/c1nc(-c2ccc3ccccc3c2)cs1` here?
Its Potency is inconclusive: 28.2 µM [quencher, side channel, single point].

For `O=C(O)c1ccc2nc(-c3ccco3)c(-c3ccco3)nc2c1`, which Potency is on record?
The Potency was inconclusive: 17.8 µM [quencher, side channel, partial curve].

With `CCCn1c(N2CCN(C(=O)/C=C/C(=O)O)CC2)nc2ccccc21` as the compound, how does the “activity change, negative = inhibition” value read?
Its value is inactive: -5.9%.

How did the Potency turn out when `O=C(NCCc1cccs1)C1CC(c2ccc([N+](=O)[O-])cc2)=NO1` (centres undefined) was run?
Its Potency is inconclusive: 11.2 µM [quencher, side channel, partial curve].

`COc1ccc(-c2cc(C(F)F)n3ncc(C(=O)Nc4c(C)n(C)n(-c5ccccc5)c4=O)c3n2)cc1` was tested. Which Potency did it give?
Its Potency is inconclusive: 15.8 µM [quencher, side channel, single point].

For `NC(=O)CSc1nnc(-c2ccccc2)c(-c2ccccc2)n1`, which Potency is on record?
The Potency was inconclusive: 12.6 µM [quencher, partial curve].

`CC(=O)c1cc2c(cc1NC(=O)Cn1nc(-c3ccc(F)cc3)ccc1=O)OCO2` was tested. Which “activity change, negative = inhibition” value did it give?
The value was inactive: 7.1%.

Which “activity change, negative = inhibition” value does the source give for `O=C(CN1C(=O)S/C(=C\c2ccccc2)C1=O)NNC(=O)c1ccccc1O` here?
Its value is inactive: 11.2%.

Which “activity change, negative = inhibition” value does the source give for `Cn1cc(/C=C2\SC(=O)N(c3ccccc3)C2=O)c2ccccc21` here?
Its value is inactive: -7.78%.

For `Cc1cccc(OCC(O)CN2CCN(c3ccccn3)CC2)c1C` (centres undefined), which “activity change, negative = inhibition” value is on record?
The value was inactive: 2.35%.

For `c1ccc(-c2ccc(-c3nccc4ccccc34)[nH]2)cc1`, which “activity change, negative = inhibition” value is on record?
Its value is inactive: 12.1%.

`NC(=O)c1sc(=S)n(-c2ccc(Br)cc2)c1N` was tested. Which Potency did it give?
The Potency was inconclusive: 10 µM [quencher, side channel, partial curve].

Which Potency does the source give for `Cc1ccc(-c2nc3ccccn3c2NC(=O)c2ccco2)cc1` here?
The Potency was inconclusive: 79.4 µM [inhibitor, single point].

Which Potency does the source give for `Nc1ccccc1S(=O)(=O)NC1=NCCCCC1` here?
Its Potency is inconclusive: 10 µM [fluorescent, side channel, full curve, poor fit].
